The labels stand for the following.
T1: RBFOX1 RRM (Homo sapiens, UniProt Q9NWB1 109-208)
T1 sequence: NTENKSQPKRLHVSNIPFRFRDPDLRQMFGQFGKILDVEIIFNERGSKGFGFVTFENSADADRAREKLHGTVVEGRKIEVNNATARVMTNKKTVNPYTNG

B1: ACCACGC (DNA:RNA)
RNA: GGGAGACCGGAAUUCAGAUUGUCCACCACGCUUAAAUCCCGUCGUAGCCACCA
DNA 1: CAATCTGAATTCCGGTCTCCC
DNA 2: TGGTGGCTACGACGGGATT
B2: UAAUGUC (DNA:RNA)
RNA: B1 RNA with A25U, C26A, C27A, A28U, C29G, G30U
DNA 1: CAATCTGAATTCCGGTCTCCC
DNA 2: TGGTGGCTACGACGGGATT
B3: GUUCAAC (DNA:RNA)
RNA: B1 RNA with A25G, C26U, C27U, A28C, C29A, G30A
DNA 1: CAATCTGAATTCCGGTCTCCC
DNA 2: TGGTGGCTACGACGGGATT
B4: AAAUAUG (DNA:RNA)
RNA: B1 RNA with C26A, C27A, A28U, C29A, G30U, C31G
DNA 1: CAATCTGAATTCCGGTCTCCC
DNA 2: TGGTGGCTACGACGGGATT
B5: UCCUCUC (DNA:RNA)
RNA: B1 RNA with A25U, A28U, G30U
DNA 1: CAATCTGAATTCCGGTCTCCC
DNA 2: TGGTGGCTACGACGGGATT
B6: GUCGGUU (DNA:RNA)
RNA: B1 RNA with A25G, C26U, A28G, C29G, G30U, C31U
DNA 1: CAATCTGAATTCCGGTCTCCC
DNA 2: TGGTGGCTACGACGGGATT
B7: CGGGGAA (DNA:RNA)
RNA: GGGAGACCGGAAUUCAGAUUGUCCCGGGGAAUUAAAUCCCGUCGUAGCCACCA
DNA 1: CAATCTGAATTCCGGTCTCCC
DNA 2: TGGTGGCTACGACGGGATT
B8: AGCGUUC (DNA:RNA)
RNA: B1 RNA with C26G, A28G, C29U, G30U
DNA 1: CAATCTGAATTCCGGTCTCCC
DNA 2: TGGTGGCTACGACGGGATT
B9: UCACGCA (DNA:RNA)
RNA: B7 RNA with C25U, G26C, G27A, G28C, A30C
DNA 1: CAATCTGAATTCCGGTCTCCC
DNA 2: TGGTGGCTACGACGGGATT
B10: UCCAUUC (DNA:RNA)
RNA: B1 RNA with A25U, C29U, G30U
DNA 1: CAATCTGAATTCCGGTCTCCC
DNA 2: TGGTGGCTACGACGGGATT
B11: UAUGGCU (DNA:RNA)
RNA: B7 RNA with C25U, G26A, G27U, A30C, A31U
DNA 1: CAATCTGAATTCCGGTCTCCC
DNA 2: TGGTGGCTACGACGGGATT
B12: CUCUGUA (DNA:RNA)
RNA: B7 RNA with G26U, G27C, G28U, A30U
DNA 1: CAATCTGAATTCCGGTCTCCC
DNA 2: TGGTGGCTACGACGGGATT
B13: UCAUGAU (DNA:RNA)
RNA: B7 RNA with C25U, G26C, G27A, G28U, A31U
DNA 1: CAATCTGAATTCCGGTCTCCC
DNA 2: TGGTGGCTACGACGGGATT
B14: UAAGAUC (DNA:RNA)
RNA: B1 RNA with A25U, C26A, C27A, A28G, C29A, G30U
DNA 1: CAATCTGAATTCCGGTCTCCC
DNA 2: TGGTGGCTACGACGGGATT
B15: UGUCAGG (DNA:RNA)
RNA: B1 RNA with A25U, C26G, C27U, A28C, C29A, C31G
DNA 1: CAATCTGAATTCCGGTCTCCC
DNA 2: TGGTGGCTACGACGGGATT
B16: CACUUCC (DNA:RNA)
RNA: B1 RNA with A25C, C26A, A28U, C29U, G30C
DNA 1: CAATCTGAATTCCGGTCTCCC
DNA 2: TGGTGGCTACGACGGGATT
B17: GGCCGGG (DNA:RNA)
RNA: B1 RNA with A25G, C26G, A28C, C29G, C31G
DNA 1: CAATCTGAATTCCGGTCTCCC
DNA 2: TGGTGGCTACGACGGGATT
B18: GCCUAAA (DNA:RNA)
RNA: B1 RNA with A25G, A28U, C29A, G30A, C31A
DNA 1: CAATCTGAATTCCGGTCTCCC
DNA 2: TGGTGGCTACGACGGGATT
B19: UGAUCGA (DNA:RNA)
RNA: B1 RNA with A25U, C26G, C27A, A28U, C31A
DNA 1: CAATCTGAATTCCGGTCTCCC
DNA 2: TGGTGGCTACGACGGGATT
B20: GUGGCAU (DNA:RNA)
RNA: B7 RNA with C25G, G26U, G29C, A31U
DNA 1: CAATCTGAATTCCGGTCTCCC
DNA 2: TGGTGGCTACGACGGGATT
B21: GCAUCGC (DNA:RNA)
RNA: B1 RNA with A25G, C27A, A28U
DNA 1: CAATCTGAATTCCGGTCTCCC
DNA 2: TGGTGGCTACGACGGGATT
B22: UUUCCAG (DNA:RNA)
RNA: B1 RNA with A25U, C26U, C27U, A28C, G30A, C31G
DNA 1: CAATCTGAATTCCGGTCTCCC
DNA 2: TGGTGGCTACGACGGGATT
B23: AACCCCC (DNA:RNA)
RNA: B1 RNA with C26A, A28C, G30C
DNA 1: CAATCTGAATTCCGGTCTCCC
DNA 2: TGGTGGCTACGACGGGATT
B24: UAGUAAA (DNA:RNA)
RNA: B7 RNA with C25U, G26A, G28U, G29A
DNA 1: CAATCTGAATTCCGGTCTCCC
DNA 2: TGGTGGCTACGACGGGATT
B25: UUUCGCC (DNA:RNA)
RNA: B1 RNA with A25U, C26U, C27U, A28C, C29G, G30C
DNA 1: CAATCTGAATTCCGGTCTCCC
DNA 2: TGGTGGCTACGACGGGATT
B26: UUGGUGC (DNA:RNA)
RNA: B1 RNA with A25U, C26U, C27G, A28G, C29U
DNA 1: CAATCTGAATTCCGGTCTCCC
DNA 2: TGGTGGCTACGACGGGATT
B27: GACAAUG (DNA:RNA)
RNA: B1 RNA with A25G, C26A, C29A, G30U, C31G
DNA 1: CAATCTGAATTCCGGTCTCCC
DNA 2: TGGTGGCTACGACGGGATT
B28: GUAGGGU (DNA:RNA)
RNA: B7 RNA with C25G, G26U, G27A, A30G, A31U
DNA 1: CAATCTGAATTCCGGTCTCCC
DNA 2: TGGTGGCTACGACGGGATT
B29: CCACUUG (DNA:RNA)
RNA: B1 RNA with A25C, C27A, A28C, C29U, G30U, C31G
DNA 1: CAATCTGAATTCCGGTCTCCC
DNA 2: TGGTGGCTACGACGGGATT
B30: GCUAGCA (DNA:RNA)
RNA: B1 RNA with A25G, C27U, C29G, G30C, C31A
DNA 1: CAATCTGAATTCCGGTCTCCC
DNA 2: TGGTGGCTACGACGGGATT
B31: GCGGUAA (DNA:RNA)
RNA: B7 RNA with C25G, G26C, G29U
DNA 1: CAATCTGAATTCCGGTCTCCC
DNA 2: TGGTGGCTACGACGGGATT

Substitutions are numbered along the chain they refer to; changes in the protein carry UniProt numbers. The list shows a part of the results.

The target of the experiment is T1, RBFOX1 RRM. The experiment is described as follows: EMSA; HiTS-Eq, 1 nM pool, 10 min; buffer printed only for the single-RNA assays: 10 mM Tris pH 7.5, 150 mM NaCl, 3.4 mM EDTA, 0.001% NP-40, 30 C. Particulars: tags: His6 N-terminal (pET28a); label: 5' 32P. Put shortly: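 Relative association constants, normalised to the cognate motif, were derived by comparing read counts of each RNA species with those of the control reaction. The RNA sequenced was the free fraction, separated by 8% native PAGE after a 10 min equilibration in 50 µL of 1 nM 5′-radiolabelled RNA (7 randomized nucleotides) with increasing concentrations of purified wild-type or mutant RbFox RRM.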
In general terms: In EMSA bound probe runs differently from free probe, usually more slowly.
For the molecule B1, the binding signal was 0.000829 KA relative to UGCAUGU.
With B2, the binding signal is 0.0138 KA relative to UGCAUGU.
As to B3, the binding signal is 0.00855 KA relative to UGCAUGU.
Regarding B4, the binding signal is 0.00609 KA relative to UGCAUGU.
As for B5, the binding signal was 0.0047 KA relative to UGCAUGU.
As to B6, the binding signal is 0.0211 KA relative to UGCAUGU.
With B7, the binding signal is 0.0229 KA relative to UGCAUGU.
With B8 the figure was 0.0128 KA relative to UGCAUGU; with B9, 0.00861 KA relative to UGCAUGU; with B10, 0.00425 KA relative to UGCAUGU.
For the molecule B11, the binding signal is 0.0165 KA relative to UGCAUGU.
Consider B12, for which the binding signal was 0.00714 KA relative to UGCAUGU.
In the case of B13, the binding signal is 0.0088 KA relative to UGCAUGU.
For the molecule B14, the binding signal is 0.0118 KA relative to UGCAUGU.
The same measure for B15: 0.0119 KA relative to UGCAUGU.
As to B16, the binding signal is 0.00267 KA relative to UGCAUGU.
The same measure for B17: 0.012 KA relative to UGCAUGU.
In the case of B18, the binding signal is 0.00601 KA relative to UGCAUGU.
As for B19, the binding signal was 0.0347 KA relative to UGCAUGU.
With B20 the figure was 0.0252 KA relative to UGCAUGU; with B21, 0.0149 KA relative to UGCAUGU; with B22, 0.00734 KA relative to UGCAUGU.
B23: the binding signal was 0.00577 KA relative to UGCAUGU.
Consider B24, for which the binding signal is 0.00712 KA relative to UGCAUGU.
As to B25, the binding signal was 0.0166 KA relative to UGCAUGU.
The same measure for B26: 0.0277 KA relative to UGCAUGU; for B27: 0.0175 KA relative to UGCAUGU.
On to B28, for which the binding signal was 0.00791 KA relative to UGCAUGU.
Regarding B29, the binding signal is 0.01 KA relative to UGCAUGU.
For B30, the binding signal is 0.0231 KA relative to UGCAUGU.
As for B31, the binding signal was 0.0136 KA relative to UGCAUGU.
